# Results as given in PubChem BioAssay AID624296 (National Center for Advancing Translational Sciences (NCATS), 2012).
# The campaign covered roughly 350,000 compounds. About 9,900 (2.8%) were called active. The inconclusive results got no clear call from the source; some entries with a clear call stand among them for comparison. Calls come from the whole dose curve; as a rule, active = well fitted activation curve with a large enough effect; inconclusive = small, poorly fitted or top-dose-only effect; inactive = no such curve, though single readings can be large or run the other way. Potencies of inconclusive entries are left out as doubtful fits.
# Assay: A quantitative high throughput screen for small molecules that induce DNA re-replication in MCF 10a normal breast cells. Note: nearly all actives have a fitted effect of over 50% in size.
# Details: MCF 10A DNA re-replication, Hoechst nuclear intensity, 48 h; series mostly up to 46.1 µM
# Potency is the fitted concentration of half-maximal effect; tags give direction and shape of the fitted curve.
row,SMILES,Potency
1,COc1ccc(C(NC(C)=O)c2cc(Cl)c3cccnc3c2O)cc1OC (configuration not stated),"inconclusive [activator, partial curve, poor fit]"
2,O=C1[C@H]2[C@H](C=CC[C@H]2C(=O)N2CCN(c3ccccc3)CC2)CCN1Cc1ccc(Cl)c(Cl)c1,"inconclusive [activator, single point]"
3,CC(C)c1ccc(C(O)P(=O)(OC2CCCCC2)OC2CCCCC2)cc1 (configuration not stated),active: 20.6 µM
4,Oc1cccc(Nc2nc(-c3ccccc3)nc3ccccc23)c1,"inconclusive [activator, single point]"
5,COc1cc(/C=C/c2nnc3c4ccccc4ncn23)cc(OC)c1OC,"inconclusive [activator, single point]"
6,CC(C)COC(=O)Nc1nnc(Cc2ccccc2)s1,"inconclusive [activator, single point]"
7,CC(=O)c1ccc(-c2ccc([C@H]3[C@H]4C=CC[C@@H](C)[C@@H]4C(=O)N3Cc3ccccc3)c(F)c2)cc1,"inconclusive [activator, single point]"
8,O=C(NC(=S)Nc1ccccc1N1CCOCC1)c1cccs1,"inconclusive [activator, single point]"
9,CN([C@@H](C(=O)OC(C)(C)C)c1ccccc1)S(=O)(=O)c1cccc(S(=O)(=O)N(C)[C@@H](C(=O)OC(C)(C)C)c2ccccc2)c1,"inconclusive [activator, single point]"
10,CCOC(=O)c1c(CC(C)C)csc1NC=O,"inconclusive [activator, full curve, poor fit]"
11,COc1ccccc1/C=C/C(=O)NC(=S)NC(C)C,"inconclusive [activator, partial curve, poor fit]"
12,CC1(C)Cc2c(c(N3CCOCC3)nc3sc4c(NN)ncnc4c23)CS1,active: 23.1 µM
13,COc1cccc(-c2nc(CS(=O)(=O)CC(=O)NCCc3ccccc3)c(C)o2)c1,inactive
14,Brc1ccccc1-c1nnc(COc2ncnc3c2cnn3-c2ccccc2)o1,"inconclusive [activator, partial curve]"
15,COc1ccc(-c2cc(C)no2)cc1S(=O)(=O)Nc1ccc(NC(C)=O)cc1,"inconclusive [activator, single point]"
16,COc1ccc2oc(C(=O)N3CCN(S(=O)(=O)c4ccc(F)cc4)CC3)c(C)c2c1,"inconclusive [activator, partial curve, poor fit]"
17,CCCn1c(N)c(N(CCOC)C(=O)CCC2CCCCC2)c(=O)[nH]c1=O,inactive
